{"source": "PubChem BioAssay (NCATS)", "note": "The list shows a part of the results. The main result of the screen is listed elsewhere. These columns were measured beside it and carry no call. Most of these compounds were active or inconclusive in the main read-out, so they are no random draw. Words in brackets tell the shape of the fitted curve; partial curves, single points and poor fits give uncertain potencies. Tags tell the direction and shape of the fitted curve."}
{"experiment": "qHTS Assay for Lipid Storage Modulators (AID 1519)", "details": "Drosophila S3 cells, BODIPY lipid droplet/cell ratio, laser cytometry; measured here: cell count channel max response; cells loaded with oleic acid", "how_it_was_run": "(§1)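 Cells seeded at 5,000 per well were treated with compounds over a concentration series and loaded with oleic acid (400 uM, as added). Lipid droplet fluorescence (488 nm excitation, 500-530 nm channel) was read by laser-scanning cytometry and normalized to 20 uM Triacsin C.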", "units": {"max response": "%"}}
{"smiles": "COc1ccc2[nH]cc(CCNc3cc(-c4ccccc4Cl)ncn3)c2c1", "max response": 24.6}
{"smiles": "COc1ccc(-n2c(=O)c(-c3cccc(F)c3)nc3cncnc32)cc1", "max response": 38.7}
{"smiles": "COc1cccc(Cn2c(=O)c(-c3cc(F)cc(F)c3)nc3cnc(OC)nc32)c1", "max response": 15.6}
{"experiment": "qHTS Assay for Lipid Storage Modulators (AID 1519)", "details": "Drosophila S3 cells, BODIPY lipid droplet/cell ratio, laser cytometry; measured here: cell number channel AC50; cells loaded with oleic acid", "how_it_was_run": "as §1"}
{"smiles": "CN(C)Cc1ccccc1-c1ccc2ncnc(N(C)C)c2c1", "AC50": "10 µM [rising, partial curve]"}
{"smiles": "CCNc1ncc2nc(-c3ccccc3)c(=O)n(CCOC)c2n1", "AC50": "2 µM [rising, full curve]"}
{"smiles": "O=C(Oc1ccccc1)N1CCC2(CC1)CCN(c1cccc(-c3ccccc3)c1)CC2", "AC50": "39.8 µM [falling, single point]"}
{"smiles": "OCC1NCC(O)C(O)C1O", "note": "(configuration not stated)", "AC50": "0.316 µM [falling, full curve, poor fit]"}
{"smiles": "COc1cc2ccc(=O)oc2c(O)c1OCC=C(C)C", "AC50": "35.5 µM [rising, partial curve]"}
{"smiles": "COc1ccc(Oc2ncc3nc(-c4cc(F)cc(F)c4)c(=O)n(C[C@H]4CCCO4)c3n2)cc1", "AC50": "3.55 µM [rising, single point]"}
{"smiles": "O=c1[nH]c2cc([N+](=O)[O-])c([N+](=O)[O-])cc2[nH]c1=O", "AC50": "8.91 µM [falling, full curve, poor fit]"}
{"smiles": "C[C@@H](/C=C\\c1cccc(Oc2ccc(F)cc2)c1)N(O)C(N)=O", "AC50": "3.16 µM [rising, full curve]"}
{"smiles": "Cc1cc(Cn2cnc3c2C[C@@H](C(=O)O)N(C(=O)C(c2ccccc2)c2ccccc2)C3)ccc1N(C)C", "AC50": "22.4 µM [rising, partial curve]"}
